Measurements taken from the supplement of paper PMC4604168 (melanoma cell lines).
The other results are listed elsewhere or left out. Many values rest on one well or one pass, so single values are uncertain.

Test system: WM115
Assay: cell count relative to DMSO control; melanoma cells; higher = more viable cells
Details: library dose: low library concentration; 72 h
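Further: cell number obtained by counting DAPI-stained nuclei in high-throughput microscope images with image analysis software, screen run in 1,536-well plates.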

| Compound | cell count [%] |
| --- | --- |
| Cc1cn(-c2cc(NC(=O)c3ccc(C)c(Nc4nccc(-c5cccnc5)n4)c3)cc(C(F)(F)F)c2)cn1 [nilotinib] + C[C@]12O[C@H](C[C@]1(O)CO)n1c3ccccc3c3c4c(c5c6ccccc6n2c5c31)CNC4=O [Lestaurtinib] (first compound 0.2 µM, partner dose 0.004 µM) | 104 |
| COc1cc2c(Oc3ccc4[nH]c(C)cc4c3F)ncnc2cc1OCCCN1CCCC1 [cediranib] + C/C(O)=C(\C#N)C(=O)Nc1cc(Br)ccc1Br [LFM-A13] (first compound 0.4 µM, partner dose 2 µM) | 114 |
| O=C(/C=C/c1cccnc1)NCCCCC1CCN(C(=O)c2ccccc2)CC1 + Cc1cc(SCc2sc(-c3ccc(C(F)(F)F)c(F)c3)nc2C)ccc1OCC(=O)O [GW0742] (first compound 0.01 µM, partner dose 2 µM) | 88 |
| Cn1c(=O)n(-c2ccc(C(C)(C)C#N)cc2)c2c3cc(-c4cnc5ccccc5c4)ccc3ncc21 + N.N.[Cl][Pt][Cl] [cisplatin] (first compound 0.004 µM, partner dose 1.6 µM) | 94.7 |
| Cc1cc(N2CCOCC2)cc2[nH]c(-c3c(NC[C@@H](O)c4cccc(Cl)c4)cc[nH]c3=O)nc12 + Cc1cc(SCc2sc(-c3ccc(C(F)(F)F)c(F)c3)nc2C)ccc1OCC(=O)O [GW0742] (first compound 0.2 µM, partner dose 2 µM) | 104 |
| CCCCCCCCc1ccc(CCC(N)(CO)CO)cc1 [fingolimod] + C[As](C)SC[C@H](NC(=O)CC[C@H](N)C(=O)O)C(=O)NCC(=O)O [Darinaparsin] (first compound 2 µM, partner dose 0.4 µM) | 89.8 |
